Hit rate of the full screen: of about 48,000 compounds, about 450 (0.94%) were called active. About 19% were inconclusive and are not listed. Calls follow the shape of the dose curve; as a rule, active = well fitted inhibition curve with a large enough effect; inconclusive = small, poorly fitted or top-dose-only effect; inactive = no such curve, though single readings can be large or run the other way. The list shows a part of the results.
Assay: Primary qHTS for Identification of Small Molecule Inhibitors of Huntingtin Promoter Activity; also: nearly all actives have a fitted effect of over 50% in size
Settings: HEK293 HTT promoter firefly luciferase reporter (activity 0% = vehicle and -100% = no light), 24 h; series mostly up to 57.5 µM; activity change, negative = inhibition: at the top concentration
How it was run: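 HEK293 cells carrying firefly luciferase reporters were seeded at 2,500 per well in Opti-MEM and cultured for 24 h. They were then treated with compounds at up to 57.5 uM final for 24 h at 37 degrees C before Dual-Glo luminescence readout.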

Row | Structure (SMILES) | activity change, negative = inhibition
1 | O=c1[nH]c2ccc(S(=O)(=O)Nc3cc(Cl)ccc3O)cc2o1 | inactive: -12%
2 | Cc1ccc(-c2nc3scc(CCNS(=O)(=O)c4c(C)noc4C)n3n2)cc1 | inactive: -28.4%
3 | CCC(=O)N1CCc2cc(Br)cc(S(=O)(=O)N3CCN(c4cccc(Cl)c4)CC3)c21 | inactive: -3.54%
4 | O=C(OCC1CCCO1)c1ccc2c(c1)N(Cc1cccc(F)c1)C(=O)c1ccccc1S2(=O)=O (stereo not drawn) | inactive: 4.73%
5 | Cc1nc2c(-c3ccc(F)cc3)c(C)nn2c(C)c1CCC(=O)NCc1cccc(Cl)c1 | inactive: -9.07%
6 | CC1CCc2nc(NC(=O)Cc3ccc(Cl)cc3)sc2C1 (stereo not drawn) | inactive: -8.16% [at 11.5 µM]
7 | CCOc1cccc(C2c3[nH]c4ccccc4c3CCN2C(=O)Cc2cccc(OCC)c2OCC)c1 (stereo not drawn) | inactive: -32.3%
8 | Cc1cc2c(cc1S(=O)(=O)CCC(=O)N(C)Cc1ccccc1)OCC(=O)N2 | inactive: -1.16%
9 | CSc1cccc(NC(=O)N2CCN(S(=O)(=O)c3ccc4c(ccn4C)c3)CC2)c1 | inactive: -34.8%
10 | O=C(CSc1nc(-c2ccccc2)no1)N1CCN(c2ccc(F)cc2)CC1 | inactive: 2.15%
11 | COc1ccc(C2=NS(=O)(=O)N(C)C(C(=O)NC(C)c3ccccc3)=C2)cc1OC (stereo not drawn) | inactive: -14.3%
12 | CCOc1ccc(NC(=O)CCc2c(C)nc3c(c(C)nn3-c3ccccc3)c2C)cc1 | inactive: 9.54%
13 | CC1CN(c2cc3c(cc2F)c(=O)c(C(=O)O)cn3-c2ccc(F)cc2F)CCN1 (stereo not drawn) | inactive: -3.83% [at 6.01 µM]
14 | Cc1ccc(S(=O)(=O)n2nc(C)c(S(=O)(=O)N3CCCCC3)c2C)cc1 | inactive: -1.11%
15 | CCc1ccc(CN(Cc2ccco2)C(=O)c2ccc(C)cc2)cc1 | inactive: -21.2%
16 | CC(=O)Nc1ccccc1-c1nc2ccccc2n(C(C)C(=O)Nc2cccc(C)c2C)c1=O (stereo not drawn) | inactive: -20.9%
17 | O=C(Nc1ccccc1)N(Cc1cccs1)c1ccc(Cl)cc1 | inactive: -12.8%
18 | O=S(=O)(c1ccc(Cl)cc1)c1nnn2c1nc(NCc1ccccc1)c1sccc12 | inactive: -13.2%
19 | Cc1ccc(-n2c(=O)[nH]c3sc4c(c3c2=O)CCCC4)cc1 | inactive: -11.9%
20 | CC(=O)N(Cc1cccnc1)c1nc2cc(C)cc(C)c2s1 | inactive: -8.95%
21 | CCc1ccc(C(=O)c2cn(CC(=O)Nc3cccc(C)c3C)c3nc(C)ccc3c2=O)cc1 | inactive: 4.54%
22 | COc1ccccc1C(=O)N(Cc1ccco1)Cc1ccccc1F | inactive: -23.5%
23 | Cc1cccc(NC(=O)CSc2nc(C)c(Cc3ccccc3)c(=O)[nH]2)c1C | inactive: -9.57%
24 | Cc1ccc(CNC(=O)c2cc(Sc3ccc(F)cc3F)nc3ccccc23)cc1 | inactive: -19.8%

Row | Structure (SMILES) | activity change, negative = inhibition
25 | CCC(C(=O)N(C)Cc1ccccc1)n1nc(C)c2sc3ccccc3c2c1=O (stereo not drawn) | inactive: -24.2%
26 | COc1ccc(CNC(=O)CCc2c(C)nn(-c3ccc(N4CCOCC4)nn3)c2C)cc1 | inactive: -17.1%
27 | COc1ccc(CCNC(=O)C2=C(C)C(=O)OC23CCCCC3)c(OC)c1 | inactive: -14.3%
28 | CC(=O)N1CCCC1c1nc2ccccc2n1Cc1cc(C)ccc1C (stereo not drawn) | inactive: -29.5%
29 | Cc1ccc2ccc3cc(C(=O)Nc4ccc(C)c(F)c4)nc3c2[nH]1 | inactive: -16.6%
30 | COc1ccc(NC(=O)C2CCCN(S(=O)(=O)c3ccc4[nH]c(=O)ccc4c3)C2)cc1OC (stereo not drawn) | inactive: -4.13%
31 | COc1ccc(-c2cc(C(=O)NCCc3ccccc3)c3c(-c4ccccc4)[nH]nc3n2)cc1 | inactive: -4.5%
32 | O=C(Cc1ccc(F)cc1)Nc1cccc(-c2nc3cccnc3s2)c1 | inactive: -15.4%
33 | Cc1ccc(CCNS(=O)(=O)c2ccc3c(c2)CCN3C(=O)CCC(=O)O)cc1 | inactive: -6.32%
34 | CCc1ccc(NC(=O)CCc2c(C)n(C)c3cc(-c4ccccc4C)nn3c2=O)cc1 | inactive: 2.06%
35 | Cc1ccccc1C(=O)N1CCCCC1CCN1CCCCC1 (stereo not drawn) | inactive: -4.74%
36 | CC(=O)N1CCc2c(sc3c2c(=O)n(-c2ccccc2)c(=O)n3Cc2cccc(C(F)(F)F)c2)C1 | inactive: -22.6%
37 | COc1cccc(N=C2SC(C(=O)Nc3cccc(Cl)c3)CC(=O)N2C)c1 (stereo not drawn) | inactive: -21.9%
38 | CCc1nn(CC(=O)NCCCN2CCN(C)CC2)c(=O)c2cc3occc3n12 | inactive: -15.4%
39 | CSc1ncc(C(=O)N2CCN(c3ccc(Cl)cc3)CC2)c(C)n1 | inactive: -1.08%
40 | COc1ccc(C(=O)c2c(N)c(-c3nc(-c4ccccc4)cs3)c3ccccn23)cc1 | inactive: -11.1%
41 | COc1ccc(C)cc1NC(=O)c1oc2ccc(S(=O)(=O)N3CCOCC3)cc2c1C | inactive: -10.5%
42 | COC(=O)c1c(NC(=O)COc2ccc(Cl)cc2C)sc2c1CCCCC2 | inactive: -13.8%
43 | COc1ccc(OC)c(NC(=O)CSC2=Nc3ccccc3C3=NC(CCC(=O)NC4CCCCC4)C(=O)N23)c1 (stereo not drawn) | inactive: -7.52%
44 | Cc1nc2nc(C)c(CCC(=O)NCc3cccc(Cl)c3)c(C)n2n1 | inactive: 0.862%
45 | O=C(Cn1c(=O)n(Cc2ccco2)c(=O)c2sc3ccccc3c21)Nc1ccccc1C(F)(F)F | inactive: -14.7%
46 | Cc1ccc(-n2nc(C)c3c(C)c(CCC(=O)NCc4ccccc4Cl)c(C)nc32)cc1 | inactive: -15.5%
47 | COc1ccc(C2=C(C(C)=O)Sc3nnc(-c4ccccc4)n3N2C(C)=O)cc1 | inactive: -17.2%
48 | CC(=O)NCCNC(=O)c1ccc2c(=O)n(CCc3ccccc3)c(=O)[nH]c2c1 | inactive: 42.1%

Reference: PubChem BioAssay AID1508623 (National Center for Advancing Translational Sciences (NCATS), 2021)
